Assay results: PubChem BioAssay AID504706 (National Center for Advancing Translational Sciences (NCATS), 2011)
Out of some 320,000 compounds screened, about 200 (0.062%) were called active. Inconclusive results, whose numbers are uncertain, are shown with a selection of clear calls. Calls come from the whole dose curve; as a rule, active = well fitted activation curve with a large enough effect; inconclusive = small, poorly fitted or top-dose-only effect; inactive = no such curve, though single readings can be large or run the other way. Potencies of inconclusive entries are left out as doubtful fits.

assay: qHTS assay for re-activators of p53 using a Luc reporter; conditions: H1299 p53-A138V BP100-luciferase reporter, luminescence, 24 h; series mostly up to 92.2 µM; note: nearly all actives have a fitted effect of over 45% in size
Method in brief: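 p53-null H1299 cells stably carrying temperature-sensitive p53-A138V and a BP100-luciferase reporter were pinned with compounds (4-point, 1:5 series) and held 24 hrs at 37 deg C. Luminescence was read 10 min after detection reagent.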
Potency is the fitted concentration of half-maximal effect; tags give direction and shape of the fitted curve.

SMILES | Potency
C=CCC[C@@H](Cc1ccc(F)cc1)C(=O)OC[C@@H]1CCCN1C(=O)[C@@H](CC=C)CC(=O)N(CCO)Cc1ccccc1 | inactive
COc1ccc(CSC2=NCCN2)cc1Cl | inconclusive [activator, single point]
CCC(=O)c1ccc(OC(=O)Cc2ccc(OC)cc2)cc1 | inconclusive [activator, partial curve, poor fit]
COc1ccc(NC(=O)c2ccc3ncsc3c2)cc1 | inconclusive [activator, full curve, poor fit]
CCCOc1ccc(N2C(=O)CC(SCCN)C2=O)cc1 (stereo not given) | inconclusive [activator, partial curve, poor fit]
CC(=Nc1ccc(C)cc1C)c1sc2ccccc2c1O | inactive
CCN(C(=O)[C@@H]1CCCN1C(=O)c1cccs1)c1nc2cc(Cl)ccc2s1 | inactive
COc1cc(C)ccc1OCC(=O)Nc1ccc2c(c1)OCO2 | inconclusive [activator, partial curve, poor fit]
CCN(CC)CCCNC(=O)CCC(=O)Nc1ccc2nc(N3CCCCC3)cc(C)c2c1 | inconclusive [activator, partial curve, poor fit]
Cc1ccc2c(c1)c1ncnc(N3CCC4(CC3)OCCO4)c1n2C | inconclusive [activator, partial curve, poor fit]
COC(=O)C(C)N1C(=O)S/C(=C\c2cc(C)n(-c3ccccn3)c2C)C1=O (stereo not given) | inactive
O=C(COC(=O)c1ccccc1C(=O)c1ccc(Cl)cc1)NCCc1ccccc1 | inactive
Cc1cc(C(=O)N2CCN(S(=O)(=O)c3ccccc3C#N)CC2)c(C)o1 | inactive
CC[C@@H]1C/C=C\Cc2ccccc2[C@H](C(=O)C[C@@H](O)CC(C)=O)OC1=O | inconclusive [activator, single point]
COc1ccc(Nc2nc(N)nc(CSc3nnc(N)s3)n2)cc1 | inconclusive [activator, partial curve, poor fit]
COc1ccc(N2C(=O)C3CC(C)=C(C)CC3C2=O)c(OC)c1 (stereo not given) | inactive
CCOc1ccc(/C=C2\SC(=S)N(CCC(=O)Nc3cccc(C(=O)O)c3)C2=O)cc1 | inactive
Cc1cc(C)c(S(=O)(=O)Cc2ccccc2)c(OC(C)C)n1 | inconclusive [activator, single point]
Cn1c(=O)c2c(n3cnnc13)-c1ccccc1CC21CCCC1 | inactive
Cc1cccc(NCc2cccc3ccccc23)n1 | inconclusive [activator, partial curve, poor fit]
